Data reported in ChEMBL document CHEMBL4888484, “Replenishing the malaria drug discovery pipeline: Screening and hit evaluation of the MMV Hit Generation Library 1 (HGL1) against asexual blood stage Plasmodium falciparum ,using a nano luciferase reporter read-out” (2022).
The whole screen tested about 150,000 compounds, of which about 540 (0.36%) showed an effect of 50% or more. Some of the results follow.

system: Plasmodium falciparum; assay: Primary screen in NF54 nanoGlo assay, in single point, at 2uM, 72h; a lower Z score goes with more inhibition; format: functional, Erythrocyte; conditions: timepoint 72 hour

| SMILES | % Inhibition [%] | Z score |
| --- | --- | --- |
| CCC(C)[C@H](NC(=O)N1CCCC1)C(=O)N1CCC2(CC1)NC(=O)CO2 (stereo not given in full) | 1 | -0.18 |
| O=C(c1ccco1)N(c1ccccc1F)C1CCCC1 | -8 | 1 |
| CC(C(=O)NC1CC1c1ccccc1C(F)(F)F)n1cncn1 (stereo not given) | -1 | 0.13 |
| FC(F)(F)Cn1nc(C2CC2)nc1CCc1ccncc1 | 2 | -0.35 |
| Cc1nc(-c2ccc(Cl)c(S(=O)(=O)N3CCC(C(=O)NCc4ccccc4)CC3)c2)no1 | -6 | 0.78 |
| COc1ccc(C)cc1NC(=O)c1csc(Nc2ncccn2)n1 | -2 | 0.46 |
| Cc1nc(Cn2nc(C)c(CCO)c2C)cs1 | -7 | 0.74 |
| CC(C)C(=O)Nc1ccccc1NC(=O)OC(C)(C)C | -9 | 1.65 |
| O=C(Cn1cnc(C(F)F)cc1=O)N1CCOC2CCCCC21 (stereo not given) | 1 | -0.24 |
| CCCc1nc(CN(C)Cc2nccc(OC)c2OC)no1 | 9 | -1.41 |
| CN1C(=O)CCC(C(=O)N2CCN(c3ccccc3)CC2)C1c1cccc(F)c1 (stereo not given) | 2 | -0.24 |
| O=C(O)C[C@@H]1CN(C(=O)CCOc2ccccc2)C[C@@H]1c1c[nH]nn1 | 3 | -0.44 |
| Cn1cc(C2=CC(c3ccccc3)=NN=C(c3ccccc3)C2)c2ccccc21 | 1 | -0.29 |
| CC(C)c1cc(C(=O)N2CC3CC4CC3C2C4O)n[nH]1 (stereo not given) | 35 | -1.16 |
| C=C(C)COc1ccc(NC(=O)C[C@H]2CCCOC2)cc1 | 7 | -1.25 |
| Cc1cc(C2(NC(=O)Nc3nn(C)cc3C)CCOCC2)on1 | -6 | 0.91 |
| CCn1ccnc1-c1cccc(NC(=O)c2cnc3c(c2)ncn3C)c1 | -5 | 0.69 |
| COc1cc(Oc2cncc(C(N)=O)n2)ccc1CN1CCCC1 | -5 | 0.96 |
| Fc1ccccc1OCCN1CC(n2cccn2)C1 | -9 | 1.07 |
| CC(C)n1ccc(Cn2cnnc2[C@H](O)c2ccccc2)n1 | -5 | 0.67 |
| Cc1nnc(C(NC(=O)C2CC2c2ccccc2)c2ccccc2)n1C (stereo not given) | 9 | -1.05 |
| O=C(CCC1CCN(Cc2nc3ccccc3[nH]2)CC1)NC[C@H]1CCCO1 | -3 | 0.63 |

| SMILES | % Inhibition [%] | Z score |
| --- | --- | --- |
| Cc1cc(=O)c(C(=O)N2CCC3(CC2)CC(=O)NC(=O)C3)cn1C | -7 | 1.2 |
| C[C@H](OC(=O)c1ccc2c(c1)OCCCO2)C(=O)Nc1ccccc1C(F)(F)F | -9 | 1.07 |
| CCO[C@H]1CCCC[C@@H]1NC(=O)c1cc(O)ccn1 | 7 | -1.19 |
| CNC(=O)c1cc(S(=O)(=O)N2CC(C)OC(C)C2)ccc1N1CCCCC1 (stereo not given) | -4 | 0.76 |
| CCC=C(C)C(=O)N(C)Cc1cccnc1 | -13 | 1.34 |
| CN(C(=O)CC1C=CCC1)C1CCN(CC(F)(F)F)C1=O (stereo not given) | 6 | -0.77 |
| CCC(C)c1csc(N(C)C(=O)C2CCOC2C)n1 (stereo not given) | -14 | 1.79 |
| CCOc1ccccc1N1C[C@@H](c2nc(C3=NOCC3)no2)CC1=O | -16 | 1.74 |
| O=c1c(S(=O)(=O)N2CCCC2)cccn1Cc1cc(F)cc(F)c1 | -7 | 1 |
| C[C@H]1[C@@H](C(F)(F)F)OCCN1C(=O)c1nccc2cccnc12 | -6 | 1.12 |
| Cc1cccc(NC(=O)CN2CCC[C@H](CNC(=O)c3cncn3C)C2)c1C | -4 | 0.55 |
| CCC(C)NC(=O)CC(c1cccs1)c1cn(Cc2ccc(F)cc2)c2ccccc12 (stereo not given) | -10 | 1.02 |
| NC(=O)c1ccc(C(F)(F)F)n(CC(=O)N(Cc2ccc(F)cc2)C2CCCCC2)c1=O | 42 | -5.42 |
| CN(Cc1ccc2cccc(Cl)c2n1)[C@@H]1CCCC[C@@H]1O | 7 | -1.05 |
| CCCC1CCC(NS(=O)(=O)C2CCS(=O)(=O)CC2)CC1 (stereo not given) | -3 | 0.24 |
| O=C(c1cccc2ccc(O)nc12)N1CCNC[C@H]1C(F)F | 11 | -1.68 |
| S=c1sc2c(N3CCN(Cc4ccccc4)CC3)ncnc2n1-c1ccccc1 | -12 | 1.25 |
| CC(C)CCC(=O)NCC(=O)N(C)c1cnn(C)c1 | -7 | 1.46 |
| CC(=O)N[C@H]1CCN(C(=O)c2cc(C(C)C)nn2C)C1 | -3 | 0.43 |
| Cc1nnc2ccc(N3CCCN(C(=O)c4ccc(COC(C)C)o4)CC3)nn12 | -15 | 1.7 |
| COCCN[C@H]1[C@@H]2OC[C@@H](O2)[C@@H](NCc2ccccc2)[C@@H]1O | 6 | -0.76 |
| Cc1c(C(=O)Nc2ccc(F)c(F)c2)nnn1CC(=O)NCCc1ccc(Cl)cc1 | 8 | -1.17 |

| SMILES | % Inhibition [%] | Z score |
| --- | --- | --- |
| O=C(N[C@@H](CO)C1CCC1)c1cnn2cccc(Br)c12 | -11 | 1.34 |
| CN1CCOC[C@@H](CNC(=O)c2ccc(-c3cnc(N)nc3)cc2)C1 | -6 | 0.55 |
| Cc1ccc(Cc2cnc(NC(=O)CCc3c(C)nn(CCC#N)c3C)s2)cc1Cl | 8 | -1.33 |
| Cc1cc(=O)[nH]c(NCCN2C[C@@](C)(c3ccccc3)CCC2=O)n1 | 7 | -1.25 |
| Cc1noc(CN2CCC[C@@H]2C(F)F)n1 | 2 | -0.31 |
| O=C(O)CCC1CCN(C(=O)C2CCC(F)(F)CC2)CC1 | -10 | 1.33 |
| CCN(C)CC(=O)N1CC[C@@]2(CCCN(CCc3ccccc3)C2)C1 | -8 | 0.93 |
| CCc1nnc(NC(=O)c2cc(-c3ccc(C)c(C)c3)on2)s1 | -2 | 0.3 |
| Cc1cnc2c(C)cccc2c1N1CC[C@H](OC(F)F)C1 | -4 | 0.64 |
| Cn1cc(Cl)cc1C(=O)N(Cc1ccncc1)C1CC1 | 5 | -0.5 |
| COCC[C@]1(c2noc(C3CCOCC3)n2)CCCN(Cc2cn(C)nc2C)C1 | 2 | -0.25 |
| Cc1cnn([C@@H](C)CNC(=O)c2ccncc2Cl)c1 | -3 | 0.38 |
| CO[C@H]1CNC[C@@H]1Nc1nc(-c2ccccc2)no1 | -10 | 2.04 |
| O=S(=O)(c1ccccc1Br)N1CC(Nc2ncccn2)C1 | 7 | -0.79 |
| O=C(c1ccc(OC2CCC2)cc1Cl)N1CCCO1 | -6 | 0.57 |
| NC(=O)c1cc(C(F)(F)F)cc(Cl)c1F | 0 | -0.03 |
| CCOC1CC(NC(=O)N(C)Cc2nc(C)cs2)C12CCC2 (stereo not given) | -18 | 1.51 |
| O=C(Cc1cccnc1)N1CC[C@@](O)(c2ccccc2)[C@H]2CCCC[C@@H]21 | -15 | 2.42 |
| Cc1ccc(S(=O)(=O)N2C[C@@H](C(=O)Nc3cccc(F)c3)Oc3cc(C)ccc32)cc1 | -9 | 1.13 |
| Cc1nn(CC(=O)O)c2nccc(-c3cccs3)c12 | 1 | -0.14 |
| COC(=O)C(NCc1cccc(F)c1F)C(C)O (stereo not given) | 2 | -0.29 |
| Cc1cccc(CN2C(=O)C3(CCOCC3)C[C@H]2c2nnnn2C(C)(C)C)c1 | -10 | 1.75 |

| SMILES | % Inhibition [%] | Z score |
| --- | --- | --- |
| CCCc1cc(C(=O)Nc2ccc(NC)nc2)no1 | -2 | 0.19 |
| O=C(Nc1ccc(OCc2cccnc2)cc1)NC1CCC(O)CC1 (stereo not given) | -12 | 1.8 |
| COc1ccc(-c2cc(C(=O)N3CCC[C@H](c4nc(C5CCOCC5)no4)C3)c(C)n2C)cc1 | -4 | 0.57 |
| Cc1cc(-c2ccc(S(=O)(=O)N3CCc4ccccc43)o2)[nH]n1 | -2 | 0.24 |
| Cc1cc(NC(=O)Cn2ccc(-c3nccnc3C)n2)n(C2CCCCC2)n1 | -3 | 0.43 |
| CC(c1nc(C2CC2)no1)N1CCOC(c2ccccc2)C1 (stereo not given) | 4 | -0.66 |
| O=C(Nc1ccc2ncccc2c1)N1CCN(Cc2ccco2)[C@@H](CCO)C1 | 10 | -1.32 |
| Cn1cc(S(=O)(=O)N2CCCCC2)cc1C(=O)NCc1ccc2c(c1)OCO2 | 3 | -0.41 |
| COc1nsc(OC)c1CNC(=O)C1(C)CC2CCC1C2 (stereo not given) | -8 | 1.74 |
| CCC(CC)n1nc(C)cc1C(=O)N(C)c1ccn(C)n1 | 2 | -0.21 |
| CCOC(C)c1nc(C)c(C(=O)NC(CC)c2ccccc2O)s1 (stereo not given) | -4 | 0.55 |
| CCC(NC(=O)Cn1cc(C)cn1)[C@H]1C[C@H](O)C1 (stereo not given in full) | -15 | 1.43 |
| CCS(=O)(=O)N1CC(=O)N(c2cccc(C)c2C)[C@](C)(C(=O)NC2CCCCCCC2)C1 | -17 | 2.17 |
| CC(=O)N[C@H]1C[C@@H](c2cc(F)cc(F)c2)O[C@@H](c2ccc(O)c(Cl)c2)C1 | 2 | -0.27 |
| Cc1ccoc1C(=O)NC[C@H]1CN(C)C(=O)CO1 | -7 | 0.84 |
| O=C(Nc1ccc(F)cc1F)c1cccn2c(-c3ccc(F)cc3)nnc12 | -7 | 1.08 |
| C[C@H](NC(=O)c1c(F)ccc(C(F)(F)F)c1Br)c1csnn1 | -4 | 0.8 |
| O=C(Nc1ccccc1OCC1CC1)c1cn[nH]c1 | -5 | 0.68 |
| O=C(CN1CCN(Cc2nc3c(s2)CCCC3)CC1)Nc1ccccc1F | -3 | 0.4 |
